Assay results taken from PubChem BioAssay AID1159614 (National Center for Advancing Translational Sciences (NCATS), 2016).
Among all 45,000 compounds or so, about 65 (0.1%) were called active. The call rests on the fitted dose curve; in most records, active means well fitted activation curve with a large enough effect; inconclusive means small, poorly fitted or top-dose-only effect; inactive means no such curve, though single readings can be large or run the other way. Some of the results follow.

Target: Galactocerebrosidase (Homo sapiens) (UniProt P54803)
UniProt P54803, sequence (P54803 whole entry, looked up): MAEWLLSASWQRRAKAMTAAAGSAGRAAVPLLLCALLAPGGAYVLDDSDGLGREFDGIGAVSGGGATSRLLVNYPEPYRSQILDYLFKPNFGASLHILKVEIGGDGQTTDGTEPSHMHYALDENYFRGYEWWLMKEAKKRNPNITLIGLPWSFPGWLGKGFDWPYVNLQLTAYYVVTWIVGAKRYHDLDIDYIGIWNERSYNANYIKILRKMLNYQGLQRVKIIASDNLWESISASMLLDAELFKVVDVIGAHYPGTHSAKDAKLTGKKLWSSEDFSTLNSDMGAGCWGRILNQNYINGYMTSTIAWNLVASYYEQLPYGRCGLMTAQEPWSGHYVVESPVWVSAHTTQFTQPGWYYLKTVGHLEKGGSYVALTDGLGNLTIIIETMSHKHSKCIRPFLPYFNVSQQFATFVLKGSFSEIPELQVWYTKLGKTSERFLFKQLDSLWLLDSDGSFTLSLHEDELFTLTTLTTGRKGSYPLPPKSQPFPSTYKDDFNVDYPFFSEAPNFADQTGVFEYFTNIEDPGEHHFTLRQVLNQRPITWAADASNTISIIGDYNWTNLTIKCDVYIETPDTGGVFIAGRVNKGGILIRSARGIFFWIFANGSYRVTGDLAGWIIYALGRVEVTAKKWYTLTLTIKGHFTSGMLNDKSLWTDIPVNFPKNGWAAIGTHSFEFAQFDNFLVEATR
Assay: A Novel Cell-Based Assay to Identify Small Molecules for B -Galactocerebrosidase; further: 0% is about no effect; nearly all actives have a fitted effect of over 65% in size
Details: 145M-Twi-hGALC-G270D cells, HMU-beta-Gal fluorescence, 48 h; series mostly up to 57.5 µM; activation: at the top concentration
Method in brief: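 qHTS, 1536-well; 145M-Twi-hGALC-G270D cells (WT line also made) in DMEM/F12 + 10% FBS; compound incubation on live cells; HMU-β-gal 0.1 mM final, pH 5.2, NaTC; carbonate stop; fluorescence increase = enhanced residual activity.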

activation, inactive:
CC(C)c1ccc(C2N=C(N)Nc3nc4ccccc4n32)cc1 (stereo unspecified) -5.36%
CC(CC(=O)Nc1ccc(Br)cc1F)S(=O)(=O)c1ccc2c(c1)NC(=O)CO2 (stereo unspecified) -2.15%
CCOC(=O)C1CCN(C(=O)C2CCN(C3=NS(=O)(=O)C(c4ccc(C)c(C)c4)=C3C)CC2)CC1 -16.2%
Cc1cccc(C2CC(=O)Oc3c2c(=O)n(C)c2ccccc32)c1 (stereo unspecified) -7.54%
CCc1ccc(Cc2cnc(NC(=O)c3ccc4c(c3)CC(c3ccccc3)OC4=O)s2)cc1 (stereo unspecified) -11%
Cc1ccc(CNC(=O)Cn2cc(C(=O)c3ccc(F)cc3)c(=O)c3ccc(C)nc32)cc1 -20.5%
CCC(C)NC(=O)C(=O)Nc1c2c(nn1-c1ccccc1)CS(=O)(=O)C2 (stereo unspecified) -7.05%
COc1ccc(CNC(=O)c2cc3c(s2)-c2ccccc2OC3)cc1 21.3%
O=C(Cn1c(=O)n(-c2ccc(F)c(Cl)c2)c(=O)c2sc3ccccc3c21)NC1CCCC1 -10.3%
Cc1ccc(-n2c(=O)c3oc4ccccc4c3n(Cc3ccccc3F)c2=O)cc1C -17.9%
CC(C)CCNC(=O)C1CCC(Cn2c(=O)c3sccc3n(CC(=O)NC(C)C)c2=O)CC1 (stereo unspecified) 7.69%
O=C(CN1C(=O)CCSc2ccccc21)Nc1ccccc1F -3.37%
CCOc1ccc(CCNC(=O)C2COc3ccccc3C2)cc1OCC (stereo unspecified) -7.96%
CCOC(=O)c1c(NC(C)=O)c2c3c(sc2n1Cc1nc(-c2ccccc2C)oc1C)CCCC3 4.43%
O=C(Nc1nc2ccc(F)cc2s1)c1nc(S(=O)(=O)Cc2ccccc2)ncc1Cl -13.8%
COc1ccc(NC(=O)CSc2nc3c(oc4ccccc43)c(=O)n2-c2ccc(C)c(C)c2)cc1 -5.84%
CC1CN(C(=O)CCC(=O)NCc2ccc(F)cc2)c2cc(Cl)ccc2O1 (stereo unspecified) -7.41%
O=C(c1ccc2c(c1)N(Cc1ccc(Cl)cc1)C(=O)c1ccccc1S2(=O)=O)N1CCCCC1 -2.96%
CCCNC(=O)C1CCN(S(=O)(=O)c2ccc3c(c2)CCCN3C(C)=O)CC1 -25.5%
COc1cccc(C(=O)Nc2ccccc2OCc2cc(=O)n3cc(C)ccc3n2)c1 -9.32%
CCc1ccc(NC(=O)CSc2nc3n[nH]c(C)c3c(=N)n2-c2ccccc2C)cc1 -8.75%
Cc1cc2nc(-c3cc(NC(=O)c4cc5ccccc5o4)ccc3Cl)oc2cc1C -10.4%
Cc1oc(-c2ccc(Cl)cc2)nc1CS(=O)CC(=O)NCc1ccc(Cl)cc1 (stereo unspecified) -19.3%
CC(C)N(Cc1ccccc1)C(=O)CCS(=O)(=O)c1cc2c(cc1Cl)NC(=O)CO2 2.63%
Cc1ccc2nc(-c3ccc(O)cc3)c(Nc3ccc4c(c3)OCO4)n2c1 -12.4%
Cc1cc(NC(=O)C(C)C)cc(-c2nc3ncccc3o2)c1O -6.88%
Cc1cc(C)n2nc(SCC(=O)Nc3ccccc3)nc2n1 -16.9%
O=C1CC(c2ccccc2C(F)(F)F)c2c(c3ccccc3[nH]c2=O)O1 (stereo unspecified) 1.53%
N#Cc1c(NC(=O)c2cc3nc(-c4ccc(Br)cc4)cc(C(F)(F)F)n3n2)sc2c1CCCC2 -16.2%
Cc1ccccc1OCc1nnc(SCc2cc(=O)c3ccccc3[nH]2)n1C 15.4%
CCOC(=O)C1=C(CS(=O)(=O)c2c(C)cc(C)cc2C)NC(=O)NC1c1cccc(OC)c1 (stereo unspecified) -5.33%
COc1ccccc1N1CCN(C(CNC(=O)C(=O)NCCCN(C)C)c2cccnc2)CC1 (stereo unspecified) -4.5%
COc1ccc(N(CC(=O)NCCc2cccc(C)c2)S(=O)(=O)c2c(C)nn(C)c2C)cc1 -9.36%
CCOc1ccc(NC(=O)C2Cc3ccccc3N2C(=O)c2ccccc2)cc1 (stereo unspecified) -9.36%
COCc1cc(C)nc2sc3c(c12)NC(c1ccc(O)cc1)N(c1ccc(OC)cc1)C3=O (stereo unspecified) -17.8%
COC(=O)c1cccc(Nc2c(-c3ccc(O)c(OC)c3)nc3nc[nH]n23)c1 -15.5%
Cn1c(=O)c2c(ncn2CC(O)CO)n(C)c1=O (stereo unspecified) -6.24%
CCOc1ccc(-c2c(C)nn3c(C)c(C(=O)Nc4ccccc4C(=O)OC)cnc23)cc1OCC -5.66%
Cc1ccc(-c2nc3cc(C(C)C)ccc3o2)cc1NC(=O)c1cccs1 -0.392%
COc1ccccc1NC(=O)Cc1c(C(=O)O)[nH]c2ccc(Cl)cc12 -26.7%
COc1cc(Cn2c(=O)sc3ccccc32)ccc1OC(C)C -10.7%
Cc1cccc(NC(=O)CSc2nc3ccc(NC(=O)c4ccco4)cc3s2)c1 -21.5%
COCCn1c(C)cc(O)c(C(c2ccccc2)N2CCN(C)CC2)c1=O (stereo unspecified) 12.5%
CCCCOc1ccc(CNC(=O)C2CCN(c3nnc(-n4cccc4CNc4ccc(C)cc4)s3)CC2)cc1 -5.17%
COc1cc(Br)c(/C=C(\C#N)c2nc3ccccc3[nH]2)cc1OC -6.21%
CC(NC(=O)c1cc(Sc2ccc(F)cc2F)nc2ccccc12)c1ccccc1 (stereo unspecified) -10.9%
Cc1ccc(C)c(N2CCN(CCCNC(=O)Nc3cc(Cl)ccc3C)CC2)c1 13.6%
CCc1nn(CC(=O)N2CCCCC2)c(=O)c2cc3sccc3n12 -6.91%
COc1ccc(CNC(=O)Cc2csc3ccccc23)cc1OC -9.11%
COc1cccc(NC(=O)CCNS(=O)(=O)c2ccc(Br)s2)c1 -10.1%
CCOc1ccc(-c2nnc(SCC(=O)NCCC(C)C)nc2-c2ccc(OCC)c(OC)c2)cc1OC -15.3%
COc1ccc2nc(NC(=O)c3nc(SCc4ccc(F)cc4)ncc3Cl)sc2c1 -15.7%
Cc1cn2c(=O)c(S(=O)(=O)NCCc3ccccc3)c(C)nc2s1 -9.44%
COc1cccc(C(=O)NCC(c2ccc(N(C)C)cc2)N2CCCC2)c1OC (stereo unspecified) -12.9%
CC(C)CN1CCc2nc(N3CCN(c4ncccn4)CC3)ncc2C1 -17.5%
Cc1ccc(N2C(=O)CSC23C(=O)N(CC(=O)NC2CCCCC2)c2ccccc23)cc1 (stereo unspecified) -27.1%
CC(C)OCCCNC(=O)c1ccc(-n2c(-c3ccccc3)cc3c2CCCC3)cc1 -14.1%
CCc1ccccc1NC(=O)C1CCC(CNS(=O)(=O)c2ccc3c(c2)CC(C)N3C(C)=O)CC1 (stereo unspecified) -9.44%
Cc1ccc(S(=O)(=O)c2nnn3c2nc(N2CCN(c4ccc(F)cc4)CC2)c2cc(Cl)ccc23)cc1C 6.18%
Cc1ccc(N2CCN(C(=O)Cc3c(C(=O)O)c(C)cn3C)CC2)c(C)c1 -3.27%
O=C(Nc1ccc(F)cc1)[C@H](CSCc1ccccc1)N1Cc2ccccc2C1=O 1.77%
O=C(COC(=O)CCCC1=NS(=O)(=O)c2ccccc2N1)Nc1ccc(Br)cc1 -29.1%
COc1ccc2nc(SCC(=O)c3c(C)[nH]c4ccccc34)nc(C)c2c1 -7.88%
CCOc1ccc(OCC)c(NC(=O)C2CCN(S(=O)(=O)c3ccc(Br)s3)CC2)c1 -7.26%
COc1ccc(-c2nc(C)c(CCNC(=O)Cc3ccc(F)cc3)s2)cc1OC -10.6%
CCc1ccc(NC(=O)C2CCN(C(=O)N3CC(CC)Oc4ccccc43)CC2)cc1 (stereo unspecified) -12.9%
CCc1ccc(NC(=O)CSc2nc3nccnc3c(=O)n2CCc2c[nH]c3ccccc23)cc1 -13.4%
Cc1cccc(NC(=O)N2CCc3c(sc4c3CCCC4)C2c2ccc(F)cc2)c1 (stereo unspecified) -10.5%
COc1cccc(-n2c(=O)c3c(C)c(C(=O)N(C)C)sc3n(CC(=O)NCCc3ccc(OC)c(OC)c3)c2=O)c1 0.474%
Cc1cccc(CSc2cn(CC(=O)N3CCCC3)c3ccccc23)c1 -11.8%
CCC(Oc1ccccc1)C(=O)Nc1ccc2oc(-c3ccc(OC)cc3)nc2c1 (stereo unspecified) -17.7%
CCC(C)(CN(C)C)OC(=O)c1ccccc1 (stereo unspecified) -28.3%
CC(=O)Nc1ccc(NC(=O)CCNS(=O)(=O)c2cccc3nsnc23)cc1 1.96%
Cc1ccccc1CNC(=O)Cn1ncn2nc(-c3cccs3)cc2c1=O -14%
CCOc1ccccc1CNC(=O)c1cc2cc(S(=O)(=O)N3CCCCC3)ccc2n1C 1.79%
COc1cccc(NC(=O)Cn2cc(S(=O)(=O)N3CCCC3)c(S(=O)(=O)N3CCCC3)c2)c1 -27.2%
CCc1ccc2oc(-c3cccc(NC(=O)c4ccc(N5CCC(C)CC5)c([N+](=O)[O-])c4)c3)nc2c1 -13.8%
Cc1ccc(CNC(=O)CSCc2ccc(F)cc2)cc1 -0.186%
O=S(=O)(c1ccccc1)n1nc(-c2ccccc2)nc1NCc1ccc(Cl)cc1 -30.2%
CCOc1cccc(CC(=O)N2CCc3c([nH]c4ccccc34)C2c2ccc(F)cc2)c1OCC (stereo unspecified) -10.9%
CCOc1ccc(N(CC)S(=O)(=O)N2CCCC(C(=O)NCc3ccccc3Cl)C2)cc1 (stereo unspecified) -15.2%
O=C(COc1ccc(S(=O)(=O)NC2CCCCC2)cc1)Nc1ccc(C(F)(F)F)cc1 -17.9%
Cc1cc(N2CCCCC2)nc2ccc(NC(=O)/C=C/c3ccccc3OC(C)C)cc12 -24.8%
O=C(Cc1cccc([N+](=O)[O-])c1)NCc1nc2cccnc2n1Cc1ccc(F)cc1 -7.92%
CC(=O)c1cccc(NC(=O)C2CCCN(c3nnc(-n4cccc4)s3)C2)c1 (stereo unspecified) -24.2%
COc1cc(C2N=C(N)Nc3nc4ccccc4n32)ccc1OCCC(C)C (stereo unspecified) -18.3%
CCOc1ccc(CC(=O)Nc2c(C(=O)c3ccc(C)cc3)oc3ccccc23)cc1OCC -16.7%
CCC(=O)N1CCc2cc(Br)cc(S(=O)(=O)N3CCCC(C(=O)Nc4cccc(Cl)c4C)C3)c21 (stereo unspecified) 15.3%
CCCCNC(=O)CCn1c(=O)c2ccccc2n(Cc2ccccc2C#N)c1=O -10.4%
O=C(O)CCc1nc2ccccc2[nH]1 -10%
CCc1ccccc1NC(=O)c1ccc2nc(CCc3ccccc3)oc2c1 -11.4%
Cc1ccc(C(=O)COC(=O)C(CC(C)C)NC(=O)C2CCC(C)CC2)cc1 (stereo unspecified) -6.56%
Cc1ccccc1-c1nc(CS(=O)(=O)CC(=O)N2CCN(c3ccccc3)CC2)c(C)o1 -5.58%
Cn1c(=O)cc(OCCCC(=O)Nc2ccc(F)cc2)c2ccccc21 -14.7%
CCCN(CCC)CCCNC(=O)C1CCCN(S(=O)(=O)c2cccc3nsnc23)C1 (stereo unspecified) -7.3%
CCOc1ccc(NS(=O)(=O)c2cc(Br)cc3c2N(C(=O)C2CC2)CC3)cc1 -7.4%
